± gives the standard deviation of the averaged measurements. This is one part of the list.
tested on: PfAP2-EXP AP2 domain (GST-tagged); experiment: gcPBM binding intensity (ln(normalized median fluorescence intensity)); higher = stronger DNA binding
Outline: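 Binding of GST-tagged P. falciparum DNA-binding domains, expressed in E. coli and used at about 25 μg on average, was carried out for 1 h in 1× PBS containing 1% milk, 0.2 mg/ml BSA, 0.5% salmon testes DNA and 0.03% Triton X-100. The target was an Agilent 4 × 180k array of primer-extended double-stranded 36-bp intergenic genomic probes plus negative controls, read with Alexa488 anti-GST antibody at 488 nm. Binding intensity is the highest Masliner-normalised natural-log median intensity across replicate spots of either probe orientation.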

Sequence | gcPBM binding intensity (ln)
AAAATCATTCCAAAGACATGCATTTTGCAAATAAAA [TGCATGCA_site461] | 8.39 ± 0.36
AATATATGTATGTACGCATGTATGTATCTATGTATT [TGCATGCA_site389] | 8.65 ± 0.3
TTATAATTATATACATGTACATATAATACATATATA [XGTACX_site8904] | 8.48 ± 0.35
TGTAATAAATAGTACACACACACATATTTATATATC [CACACA_site6770] | 8.84 ± 0.44
ATATGGGTAATGAATTGTACTCTTTCTTGTTGTTCT [XGTACX_site4487] | 8.64 ± 0.52
GTATAATTTTCGTATTCACACAAGAATATACTACAT [CACACA_site4877] | 8.74 ± 0.43
TATAATATTATATATAAACACACATACACATGTAAA [CACACA_site8631] | 8.79 ± 0.73
GTATATTTATAGCCTTTATTATATTTAATATTATTA [TGCATGCA_negctrl_site26] | 8.53 ± 0.39
AGAAAAGTTTAATACAGTACATAAACAAAGTATAGG [XGTACX_site2386] | 8.49 ± 0.95
GTTATATTTTTTTATACACACTGGAATATATAAATA [CACACA_site4282] | 8.56 ± 0.37
ACCCAATTTTAAAATGAACACACATGTTTTTCTTAC [CACACA_site8246] | 8.82 ± 0.25
TATTTATTGTGATACTACTATTATTTTATGATTAAA [CACACA_negctrl_site284] | 8.44 ± 0.42
ATAATTATATATTTATGTACGCATAAATATTTATAT [XGTACX_site5765] | 8.49 ± 0.3
AACTATATCATTTATTTTATTTTTTAAATACATTTA [CACACA_negctrl_site183] | 8.42 ± 0.35
TTGTTTTATTATTCGATGCACTACAGAAATATATTC | 8.89 ± 0.34
TATACAACTTTATGAAGTACAAAAAGTTCTATATAT [XGTACX_site3866] | 8.3 ± 0.47
TTATATTATTTTTAATGTACTTTTTATGAATACAAA [XGTACX_site689] | 8.48 ± 0.21
TATATATAACTTTATTGTACAAAATATTATGTATTC [XGTACX_site981] | 8.47 ± 0.43
TTATAATTTTAATGTGCACACAATTAAAATATTATA [CACACA_site5172] | 8.57 ± 0.18
TGTAAGAAATTGAGCGCACACATACATCTGTGGGAT [CACACA_site4945] | 8.87 ± 0.48
TATAAATAAATATACACACACACATATAAATATGTA [CACACA_site6504] | 8.36 ± 0.38
TTTTGTTTATGTGTGCATTATATTATATTTTTTATT [TGCATGCA_negctrl_site146] | 8.96 ± 0.28
TATTGACAAAAAAAAAAAAGGTAAAAAAGAAAGAAA [GTGCAC_negctrl_site418] | 8.66 ± 0.56

Sequence | gcPBM binding intensity (ln)
AATAAATATAGGTACACACACAAATATGTACATATC [CACACA_site6976] | 8.79 ± 0.34
TAGTTGCACATGTATACACACAAAAAATATTTTATG [CACACA_site475] | 8.94 ± 0.26
AAAGAAAGGAATACGACACACAAAAAAAAAATATAT [CACACA_site1934] | 8.9 ± 0.54
AAGAAACCATAATATGCATGCACATATTAATAAATA [TGCATGCA_site693] | 9.68 ± 0.26
AAGTGGTTATAATCAACACACGTGGAATGTACTTTA [CACACA_site3700] | 8.67 ± 0.34
CTACATACAAGAATTAAACACACACTAATTATAAAT [CACACA_site8986] | 8.56 ± 0.54
CCTCAATATTCACATACACACAATATCATCGAAGTA [CACACA_site1676] | 8.8 ± 0.56
AATAAGCATATACAAACATGCATACATATAAATAAA [TGCATGCA_site338] | 8.84 ± 0.47
TTTTTTTTTTTTTTGACACACATAATAAAATACAAA [CACACA_site3080] | 8.29 ± 0.46
GAAACGATTTAATACACACACGTATTATAGATATAT [CACACA_site6666] | 8.56 ± 0.3
TATATATTTGTAACGGGTACGTAGGTGTATATTCCA [XGTACX_site6028] | 8.7 ± 0.38
AGCCACGTGGTATATACACACATAATCAAATAAAAT [CACACA_site9364] | 8.72 ± 0.54
GAAAGAATAAAATTTACACACATATATAAATACATA [CACACA_site5273] | 8.44 ± 0.33
AAATATTTTAACGAGAGTACATAATAACAATTTATG [XGTACX_site3865] | 8.64 ± 0.38
TTTTTTTTTTTTTATTGTACTAAATTATAGAGGGGA [XGTACX_site2609] | 8.45 ± 0.55
AAAAAAAAAAAATACACACACACATATATATATATA [CACACA_site731] | 10.2 ± 0.18
ATAAAACAACACACTTGTACTAATTTTTTTTTTTTT [XGTACX_site8377] | 8.29 ± 0.36
TGAATAAATAGACACACACACATATATAAATATGTA [CACACA_site6159] | 8.46 ± 0.47
TAATTTATAAGGTATAACAACAATTGCATCTATCAC [XGTACX_negctrl_site314] | 8.59 ± 0.49
ATTATCCATGCATTTACACACACACTAAAAAAAATT [CACACA_site7848] | 8.87 ± 0.26
AATTAAATTTATATGAATGTCAATTATATTGTTATA [XGTACX_negctrl_site261] | 8.06 ± 0.3
ATGTATATATATTTGTGTACATATTTAGGAAATAAA [XGTACX_site2904] | 8.62 ± 0.33
TTGAATTAAAAACATACATGCATATATATATATATA [TGCATGCA_site319] | 10.1 ± 0.52

Sequence | gcPBM binding intensity (ln)
AAAAAGTTACATGGTGGTACTCAAATAAAATATTCT [XGTACX_site5993] | 8.34 ± 0.28
TTATAAAATGGGCAAACACACACAAAAAAAAGATAT [CACACA_site8476] | 9.02 ± 0.61
AATAAATTACTATGTACACACATAAGAGTATAAATA [CACACA_site6940] | 8.56 ± 0.32
AATATATCTTTTTACGGCAACCATATTTTTCCCATT [CACACA_negctrl_site963] | 8.88 ± 0.52
TTTTTTTTTTTTTGATGTACATAAATTAAGAATTAT [XGTACX_site7789] | 8.4 ± 0.54
TTTTTTTTAGTATGAACACACATATATATTATAAAA [CACACA_site2935] | 8.35 ± 0.37
TTTATATGTGAAAAAAGTACAAGGAAAAAATTAAAC [XGTACX_site7269] | 9.06 ± 0.35
TATTATGTTATATATTGTACATGTTTATTGAAACAA [XGTACX_site5605] | 8.66 ± 0.21
TATTAACAAAATATAGCACACATAAATATATATTTA [CACACA_site8005] | 8.63 ± 0.23
AATATAATTATATGTGGTACAGAAATAATATAAAAT [XGTACX_site2366] | 8.86 ± 0.3
TTCTTTTTTTTTCTGGGTACATATATTCCAATCACT [XGTACX_site4770] | 8.99 ± 0.39
TTATAAAAGACAAAAGTGCATATATACATATGTATA | 8.48 ± 0.42
TATAACTTTTATAGGTGTACCCAATATTATATATAG [XGTACX_site7673] | 8.46 ± 0.12
TTTATATGTTTTGTATTTTTAATAAATATTTTATTA [TGCATGCA_negctrl_site20] | 8.68 ± 0.31
TATATATAATAAGAAGGTACACGTAAGTAATAATTT [XGTACX_site934] | 9.09 ± 0.49
CCATCTTTTTTACGATGTACAAGTATAAGGTATACG [XGTACX_site2697] | 8.52 ± 0.38
ATATATATATATGTATGTACACATATTTTTTAACTT [XGTACX_site431] | 10.42 ± 0.042
AAATAAATAAATTAACGTACATAATAACATTAATAT [XGTACX_site8567] | 8.46 ± 0.26
TTATATTATAGACACACACACAAAAAAAAAAAAAAA [CACACA_site3816] | 8.19 ± 0.59
TGTAAAACCTCCTACACACACCAATTAACTATTCTA [CACACA_site7074] | 8.54 ± 0.44
TATATATATATTATTAGTACTTATTTTTTTTCATAT [XGTACX_site1279] | 9.63 ± 0.3
AAAGAAAAATTAACATGTACAAAAATTACTTGTTCA [XGTACX_site6725] | 8.47 ± 0.38
GTATATAAATATATATATATATATATATCTATATTT [CACACA_negctrl_site871] | 8.29 ± 0.11

Sequence | gcPBM binding intensity (ln)
GTATTTTTACAAATTTGTACATATATATGAATATAC [XGTACX_site6717] | 9.12 ± 0.44
AAAAAAAATTCACACTGTACAAAAGCATAAATAAAC [XGTACX_site5408] | 9.08 ± 0.4
TCTGAAACAAGAAAAAGTACACAAATTACAAAACTA [XGTACX_site7641] | 8.72 ± 0.33
ATATTTACCTTTGTATGTACATATATAAAATATATC [XGTACX_site6367] | 8.81 ± 0.46
TTTTGTAAAAAGAAAAATTAGAATATATCGTATATA [XGTACX_negctrl_site617] | 8.02 ± 0.43
TTATTTATTTATTCATGTACGTGTATTTTTTAAAAA [XGTACX_site7915] | 8.94 ± 0.43
TATATATATATTATCACACACTCACGTTTGACAAAA [CACACA_site689] | 9.65 ± 0.29
TAATAAATACAAAAATGTACACACATATATATATTT [XGTACX_site7430] | 8.39 ± 0.4
AGTGTCATATTAACACGTACATAATTATTGTAGAGA [XGTACX_site568] | 8.85 ± 0.38
ATTGGGTACAAATACACACACATATATATATTAAGA [CACACA_site5330] | 8.66 ± 0.49
TATTACATACAATATTGTACATATCATATTTTGAAT [XGTACX_site2191] | 8.55 ± 0.3
ACGGAAAAAGAAAAGGTGCATATGGACACAATATAT | 9.35 ± 0.17
ATTATTTGTTTAAATTCACACACGTATATATATTTA [CACACA_site3050] | 8.66 ± 0.42
ACATGTAAATGGAAAAGTACTAATAACTTGTATTGG [XGTACX_site5181] | 8.89 ± 0.25
ATAGAAATATTATATTGTACGAACAGTTATTAACAA [XGTACX_site2137] | 8.77 ± 0.29
ATATATAAATATATTACACACTTTTTCTTTTTTTTT [CACACA_site7332] | 8.41 ± 0.42
TTATTTTAATATAAAATACACACTACTATTATAAAT [CACACA_site1470] | 8.3 ± 0.34
TAATTATTAAAACATTGTACATTATTATAAACAATT [XGTACX_site4489] | 8.22 ± 0.31
TTTTCCATAAGAATTACACACAGAAAGGATAAGTAT [CACACA_site105] | 8.78 ± 0.27
AAACAGCATGGTATACCTATAAAATATATATACTAA [GTGCAC_negctrl_site39] | 8.53 ± 0.45

Source: the supplement of paper PMC11417369
